According to PubChem BioAssay AID1768 (National Center for Advancing Translational Sciences (NCATS), 2009):
Hit rate of the full screen: of about 270,000 compounds, about 620 (0.23%) were called active. Inconclusive means that the source gave no clear call. Such entries were picked first, then a sample of the others. Calls follow the shape of the dose curve; as a rule, active = well fitted inhibition curve with a large enough effect in the polarisation, with a control signal flat (not every such curve was filed as active); inconclusive = small, poorly fitted or top-dose-only effect, or effect the other way, or a change in a side signal; inactive = no such curve, though single readings can be large or run the other way; the % refers to the polarisation. Potencies of inconclusive entries are doubtful fits and often do not repeat. A note “side channel” means that the fit belongs to a control or component signal, not to the main read-out.

These compounds were tested against Menin (Homo sapiens) (UniProt O00255) (assay: qHTS Assay for Inhibitors Targeting the Menin-MLL Interaction in MLL Related Leukemias: Competition With Texas Red Labeled MLL-derived Mutant Peptide). Details: fluorescence polarization; FP activity change, negative = inhibition: at 61.6 µM (top of the series).
Sequence of UniProt O00255 (O00255 whole entry, looked up): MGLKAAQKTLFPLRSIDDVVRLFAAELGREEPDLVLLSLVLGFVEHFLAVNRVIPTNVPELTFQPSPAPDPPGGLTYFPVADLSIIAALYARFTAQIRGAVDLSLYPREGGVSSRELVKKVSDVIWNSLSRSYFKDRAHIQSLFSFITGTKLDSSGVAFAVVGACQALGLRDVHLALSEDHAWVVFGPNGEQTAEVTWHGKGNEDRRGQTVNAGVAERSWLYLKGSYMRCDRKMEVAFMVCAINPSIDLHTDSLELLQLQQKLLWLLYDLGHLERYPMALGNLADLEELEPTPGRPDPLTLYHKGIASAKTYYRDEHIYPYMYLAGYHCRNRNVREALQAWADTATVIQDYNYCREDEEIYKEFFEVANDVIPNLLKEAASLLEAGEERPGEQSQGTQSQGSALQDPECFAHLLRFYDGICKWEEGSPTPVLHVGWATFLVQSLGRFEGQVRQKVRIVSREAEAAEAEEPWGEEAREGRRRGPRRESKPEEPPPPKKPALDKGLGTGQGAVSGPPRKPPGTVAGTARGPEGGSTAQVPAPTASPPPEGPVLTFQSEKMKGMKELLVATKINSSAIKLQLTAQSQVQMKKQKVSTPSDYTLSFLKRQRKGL

For FP activity change, negative = inhibition in this document: % of control where 0% means no effect.
Potency is read from the fitted curve at half-maximal effect; tags tell the direction and shape of the fitted curve or compound fluorescence and quenching.

FP activity change, negative = inhibition, inactive:
NCC(=O)N[C@@H](CCCN=C(N)N)C(=O)NCC(=O)N[C@@H](CC(=O)O)C(=O)N[C@@H](CC(N)=O)C(=O)N1CC[C@@H](C(=O)O)C1 5.75%, O=C(NCCc1ccccc1)c1cc(S(=O)(=O)N2CCOCC2)ccc1F 5.04%, COc1ccc(NC(=O)c2ccc(-c3ccccc3)cc2)cc1NS(=O)(=O)c1ccc(F)cc1 -0.0144%, COc1ccc(NC(=S)NCc2ccc(F)cc2)cc1 -1.79%, O=C(Nc1ccc(-c2nnc(-c3ccco3)o2)cc1)C(c1ccccc1)c1ccccc1 -6.38%, CCn1c(C)c(C(=O)O)c2cc(OC)c3ccccc3c21 46%, CCN(CC)S(=O)(=O)c1ccc2nc(CCl)[nH]c2c1 12.6%, CN1CCN(c2nc(-c3ccc(Cl)cc3Cl)nc3ccccc23)CC1 -20.6%

Potency, inconclusive:
Cc1ccc(OCC(=O)NC(C)c2ccccc2)cc1C (stereo not drawn) 11.2 µM [fluorescent, side channel, partial curve], COc1ccc(C[C@H]2CN3C(=NC[C@@H]3Cc3ccccc3)N2CCNC(=O)CCC2CCCCC2)cc1 12.6 µM [fluorescent, side channel, partial curve], CCCCc1cc(=O)oc2cc(OCC(=O)NC3CCN(Cc4ccccc4)CC3)ccc12 2.82 µM [inhibitor, full curve, poor fit], O=C(N/N=C/c1c[nH]c2ccccc12)C1CC1c1ccccc1 (stereo not drawn) 20 µM [quencher, side channel, partial curve], CC(C)CC(NC(=O)C(COCc1ccccc1)NC(=O)OC(C)(C)C)C(=O)NN (stereo not drawn) 17.8 µM [fluorescent, side channel, partial curve], Cc1cccc(OC(C)C(=O)N2CCCc3ccccc32)c1 (stereo not drawn) 1.26 µM [fluorescent, side channel, full curve], O=C(Nc1ccc([N+](=O)[O-])cc1)c1ccc(Cn2cc([N+](=O)[O-])cn2)cc1 14.1 µM [quencher, side channel, partial curve], CCOC(=O)C1(CCc2ccccc2)CCN(C(=O)Cc2nonc2C)CC1 15.8 µM [fluorescent, side channel, single point], N#CC(c1nc2ccccc2nc1N1CCCCC1)S(=O)(=O)c1ccc(Cl)cc1 (stereo not drawn) 0.708 µM [inhibitor, partial curve], Cc1ccc(N(CCCCN2C(=O)c3ccccc3C2=O)C(=O)c2cccc([N+](=O)[O-])c2)cc1 39.8 µM [inhibitor, partial curve, poor fit], S=C1NC(c2ccccc2)=CC(c2ccccc2)N1 (stereo not drawn) 39.8 µM [inhibitor, single point], CCCCN(C)C(=O)Cn1ncc2c3ccccc3n(CCC)c2c1=O 3.16 µM [fluorescent, side channel, full curve, poor fit], Cc1cc(NC(=O)CN2CCOCC2)n(-c2nc3ccccc3s2)n1 25.1 µM [fluorescent, side channel, single point], CCN1C(=O)c2ccccc2Sc2ccc(C(=O)NCCCN(CC(C)C)CC(C)C)cc21 3.16 µM [inhibitor, full curve], COc1cccc2c(=O)c(C(=O)NCc3cccs3)c[nH]c12 25.1 µM [quencher, side channel, partial curve], CN1C(=O)/C(=C/c2ccc(OCc3ccc(C(=O)O)cc3)c(Cl)c2)NC1=S 25.1 µM [quencher, side channel, single point], COc1ccc(N2CCN(c3ccc(NC(=O)NN)cc3)CC2)cc1 0.0562 µM [quencher, side channel, partial curve], Cc1ccc(CSc2nnc(-c3ccc(NS(=O)(=O)c4ccccc4)cc3)o2)cc1 39.8 µM [quencher, side channel, single point], COc1cc(OC)c(OC)cc1CN1CCN(Cc2cccn2C)CC1 15.8 µM [inhibitor, partial curve], C=CCN1C(=O)/C(=C/c2ccc(OCC(=O)O)cc2)S/C1=N/c1nccs1 39.8 µM [quencher, side channel, single point], O=c1[nH]c(Cn2nnc(-c3ccccc3)n2)nc2scc(-c3ccccc3)c12 39.8 µM [inhibitor, single point], O=C(NNC(=O)c1ccc(Br)o1)c1ccc(NC(=O)c2ccccc2)cc1 39.8 µM [fluorescent, single point], COc1ccc(NC(=O)Nc2cc(C)ccc2OC)cc1 28.2 µM [quencher, side channel, single point], COc1ccc2c(c1)C(c1ccccc1C)CC(=O)O2 (stereo not drawn) 39.8 µM [quencher, side channel, partial curve], O=S1(=O)CCC(N=Cc2ccc(-c3ccc(Cl)cc3)o2)C1 (stereo not drawn) 25.1 µM [quencher, side channel, partial curve], COc1ccc(CN2CCN(C(=O)c3ccc4nc(N5CCOCC5)sc4c3)CC2)c(OC)c1OC 10 µM [fluorescent, side channel, partial curve], CCOc1cc(NC(=S)NCc2ccco2)c(OCC)cc1NC(=O)c1ccco1 12.6 µM [quencher, side channel, partial curve], Oc1ccc(Cl)cc1C1=Nc2ccccc2N=C(c2ccco2)C1 25.1 µM [quencher, side channel, single point], C(=C\c1ccccn1)/c1cccnc1 39.8 µM [inhibitor, single point], CCOc1ccc2[nH]c(C)cc(=O)c2c1 3.16 µM [inhibitor, partial curve, poor fit]
